Data taken from PubChem BioAssay AID1347073 (National Center for Advancing Translational Sciences (NCATS), 2019).
The campaign covered roughly 45,000 compounds. About 200 (0.44%) were called active. About 7% were inconclusive and are not listed. The call rests on the fitted dose curve; in most records, active means well fitted activation curve with a large enough effect; inconclusive means small, poorly fitted or top-dose-only effect; inactive means no such curve, though single readings can be large or run the other way. The list shows a part of the results.

Assay: qHTS of TDP-43 Inhibitors: NCGC Sytravon Library Screen; further: 0% is about no effect; nearly all actives have a fitted effect of over 55% in size
Conditions: yeast TDP-43 toxicity rescue, BacTiter-Glo growth, 24 h; series mostly up to 46.1 µM; growth rescue (activation): at the top concentration
Procedure, shortened: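 TDP-43-expressing yeast, pregrown in raffinose, seeded at OD600 0.02 in galactose medium with compound for 24 hr at 30 deg C. Growth read by BacTiter-Glo luminescence, so rescue of toxicity appears as activation.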

SMILES	growth rescue (activation)
CN1CCN(C(=S)NC(=O)c2ccc(Br)cc2)CC1	inactive: -0.8%
CCOC(=O)CSc1nnc(COc2cccc(C)c2)o1	inactive: 12.1%
CC(=O)Nc1ccc(CN(C)c2c(C)nc3ccc(C(=O)NCCCn4ccnc4)cn23)cc1	inactive: -0.197%
CCCCC(C)n1[nH]c(=O)c2c(C)cc(C)nc21 (centres undefined)	inactive: -7.22%
CC(C)C(O)(C#CCN1CCCCC1)C(C)C	inactive: 0.665%
CN1CCN(S(=O)(=O)c2ccc(Oc3ccc(F)cc3Br)nc2)CC1	inactive: 33.7%
COc1ccc(C2c3ccc(O)cc3Oc3ncn(CCN4CCOCC4)c(=N)c32)cc1 (centres undefined)	inactive: -45.5%
CCCCn1c(=O)[nH]c(=O)c2c1nc(-c1ccc(C)c([N+](=O)[O-])c1)n2CC	inactive: 12.5%
Cc1ccc2nc(/C(C#N)=C/c3ccc(O)c(O)c3)[nH]c2c1	inactive: 2.59%
N[C@@H](Cc1ccccc1)C(=O)N1CCC(C(=O)N[C@@H](Cc2c[nH]c3ccccc23)C(=O)O)CC1	inactive: 7.94%
CCc1nc2c(OCc3ccc(F)c(F)c3)cccn2c1N(C)C(=O)c1ccncc1	inactive: 10.3%
CSc1ncc(CN2CCN(CC=C(C)C)C(CCO)C2)cn1 (centres undefined)	inactive: -5.79%
CCc1nc2ccc(C(=O)NCCc3ccccn3)cn2c1N(CC)CCOC	inactive: -8.01%
O=C(CCc1ccc(O)c(O)c1)NNC(=S)Nc1ccc(Br)cc1Cl	inactive: -8.9%
Cc1ccccc1-n1c(SCC(=O)NC2CCS(=O)(=O)C2)nc2ccccc2c1=O (centres undefined)	inactive: 28.2%
Nc1nc(SCC(=O)c2c(N)n(C3CC3)c(=O)[nH]c2=O)n[nH]1	inactive: 30.5%
CC(C)(C)Nc1nc(-c2ccc3c(c2)CCN3C(=O)C2CC2)cs1	inactive: 19.5%
C=CCN(C(=O)Cc1cccs1)c1nc(-c2ccc(S(C)(=O)=O)cc2)cs1	inactive: 8.13%
CCCN(CC1CC1)C(=S)Nc1ccccc1F	inactive: 11%
CCNC(=S)N(CCN(CC)CC)Cc1cc2cc3c(cc2[nH]c1=O)OCCO3	inactive: 2.37%
COc1cccc(C2CC(c3cccs3)=NN2C(=O)CCC(=O)O)c1OC (centres undefined)	inactive: 6.25%
CSCCC(NC(=O)C1CCC(C)CC1)C(=O)NCCN1CCC(C)CC1 (centres undefined)	inactive: -10.8%
COCCn1c(SCC(=O)NC2CCCC2)nnc1-c1ccco1	inactive: -0.415%
O=C(CSc1nc(-c2ccc(F)cc2)cc(C(F)(F)F)n1)Nc1ccc2c(c1)OCO2	inactive: 16.1%
O=C(COC(=O)/C=C/c1cccs1)Nc1ccccc1Cl	inactive: 3.67%
O=[N+]([O-])c1ccc(/C=N/n2c(CO)nc3ccccc32)s1	inactive: -12.5%
Cc1ccc(C(=O)N[C@H](C(=O)N2CCN(c3ccccc3F)CC2)C(C)C)cc1	inactive: -7.16%

SMILES	growth rescue (activation)
CC1CN(c2nc3ccccc3nc2NS(=O)(=O)c2ccccc2)CC(C)O1 (centres undefined)	inactive: 29.1%
Cc1ccc(NC(=O)Cn2c(O)c(N=NC(=O)c3ccncc3)c3ccccc32)cc1	inactive: 9.69%
CCN1/C(=C2/OC(=S)N(C)C2=O)Sc2ccccc21	inactive: -20.8%
Cc1ccc(Cl)cc1-c1cc(C(=O)NCC2CCCCC2)[nH]n1	inactive: 12.8%
CCn1c(Cc2ccccc2)nnc1SCC(=O)Nc1ccccc1O	inactive: -14.4%
COCCNC(=O)COc1ccccc1Cl	inactive: 9.29%
Cc1cccc(CNc2ncc(-c3cccc([N+](=O)[O-])c3)n2C)c1	inactive: -1.66%
CCCS(=O)(=O)c1nc(S(=O)(=O)c2ccc(C)cc2)c(N(CC)CC)s1	inactive: -14%
Cc1ccc(NC(=O)CSc2nnc(CNC(=O)c3ccco3)n2C)c(C)c1	inactive: -9.29%
COc1cc(OC)nc(C(NC(=O)C2CCN(Cc3ccc(N(C)C)cc3)CC2)c2ccc(F)cc2)n1 (centres undefined)	inactive: -1.49%
CCOc1ncccc1C(=O)OCC(=O)Nc1ccc(C)c(S(=O)(=O)N(C)C)c1	inactive: 11.6%
COc1ccc(C(=O)Nc2cc3c(oc2=O)CCCC3=O)cc1	inactive: -17.4%
O=C(Nc1ccc(Br)cc1)C1C2C=CC3(O2)C1C(=O)N(CCN1CCOCC1)C3C(=O)NC1CCCCC1 (centres undefined)	inactive: 16.7%
CCCCNC(=O)C1(C)CCN1C(=O)c1ccc(F)cc1Cl (centres undefined)	inactive: 1.36%
CCCCCc1ccc(-c2ccc(/C=C/C(N)=O)cc2)nc1	inactive: 17.8%
Cc1ccc(S(=O)(=O)N2CCOCC2)cc1NC(=O)COC(=O)c1cnc(Cl)c(Cl)c1	inactive: 6.57%
Cc1ccnc2nc(C(=O)OCC(=O)Nc3ccc4c(c3)OCCO4)nn12	inactive: 7.25%
CCOC(=O)CSc1n[nH]c(NS(=O)(=O)c2ccccc2C(F)(F)F)n1	inactive: -14.3%
COc1cc(C2NC(=O)CS2)cc(OC)c1OC (centres undefined)	inactive: 4.43%
Cc1cc(C)n2nc(C(=O)Nc3ccc(S(=O)(=O)N4CCCC4)cc3)nc2n1	inactive: 29.9%
COCCN(C(=S)Nc1cccc(OC)c1)C1CCN(C(C)C)CC1	inactive: -1.07%
Cc1cc(C(=O)CN2C(=O)NC(C)(c3cc(F)ccc3F)C2=O)c(C)n1C1CC1 (centres undefined)	inactive: -28%
COC(=O)c1cc2ccsc2n1CC(=O)N(C)C1CCCCC1	inactive: 9.09%
COCCCNC(=O)CN(CCc1ccccc1)S(=O)(=O)c1ccccc1	inactive: -2.31%
CCOCCCNCc1c(Cl)cccc1Cl	inactive: -3.94%
CCNCc1cc(Cl)c(OCc2ccccc2)c(OCC)c1	inactive: -3.6%
Cc1ccc2c(COC(=O)c3ccccc3OC(F)F)cc(=O)oc2c1	inactive: 1.74%
